Assay results published in the supplement of paper PMC10126150.
Values marked as one replicate rest on one cluster of the flow cell; about a third of the high ones do not repeat.

System: ATP
Assay: switch fluorescence ratio, 500 uM ATP over buffer (Cy3 cluster intensity, sum of 5 cycles each) (fold (ratio)); higher = stronger signal-on switching upon ATP binding; sequences stand for … in TCGTCGGCAGCGTCAGATGTGTATAAGAGACAGTTTTTTTTTTTTTTTTTTTTTTTTT…TC
Details: aptamer strand: ATP DNA aptamer (quencher-CACCTGGGGGAGTATTGCGGAGGAAGG + anchor), 100 nM annealed; ATP concentration: 500 uM; one replicate
In short: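 After annealing to 100 nM quencher-labelled ATP aptamer, Cy3-labelled switching-strand clusters on a modified Illumina MiSeq flow-cell were imaged in selection buffer. A second image followed after 15 min with 500 uM ATP at 22 °C, and five such buffer/ATP cycles were done, each separated by NaOH stripping and re-annealing. The fluorescence ratio, averaged per switch-domain sequence, is summed target-cycle over summed buffer-cycle Cy3 intensity per cluster, with clusters outside 100-1000 RFU excluded.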
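Further: ATP exposure 15 min at 22 °C before imaging.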

Sequence | switch fluorescence ratio
CAAGCTCTGA | 1.02
GAGTTTATA | 1.01
TTAATGTATA | 1.01
TCTTGTGCCG | 0.961
TCCGGATCCG | 1.02
CCACTTAGGA | 0.993
ACATAAACGT | 1.13
TACGAATGGC | 1.09
GGCTAGGTAT | 1.05
GGAGGGCTGC | 1.01
ACTTGTAACC | 0.987
GAAAACAGCG | 1.05
AGCGGCCTGT | 0.972
ATGATAGGGT | 0.961
CGGTACGGAG | 0.98
GAAGCGACGT | 1.04
GATAGGCGTA | 0.971
GGTGGAAAGT | 0.954
GGGTTAATG | 1.01
TGTTTACCAC | 0.985
CTCGTTTAAG | 0.999
TCGAAAGGCC | 0.953
CGTCAGTCAG | 0.985
GTCATAGGAG | 1.01
TAACGTACGT | 1.12

Sequence | switch fluorescence ratio
TCTTTAGGTC | 0.972
TATGGACTGA | 1.03
GAATACTTAA | 0.994
TCTGTAGATG | 1.04
TTGGGAACAG | 0.988
ACCTGCCACC | 1.72
CGAAGGATAT | 1.05
GTTCTGAACA | 0.902
CTAGCACACT | 1.17
ATGGATCAGC | 1.02
TCGGGTGACT | 0.972
CAGAGTGATG | 1
CAAGGGAGAT | 1
CTCGAAGGGA | 1.02
GACCTTCGTT | 1.18
AATGTGTGCA | 1
TATTGAAAG | 0.998
GGATGCCGGT | 1
TACGTCTTAC | 1.27
GCCAATAACT | 1.11
GACCGGGATT | 1.02
TTTCCGCCTT | 1.2
CTGTCTAATA | 1.02
AAAGTAATCG | 1.05
GCCATCATGT | 1.01

Sequence | switch fluorescence ratio
GTAAAACCGG | 1.01
GATCTTTTGC | 0.959
CCTCTCCGGA | 1.17
ATGGGTGTCA | 0.985
TGCTAAACTT | 1.02
TTCGCTCTCT | 1.01
CTATTATGGC | 1.08
TAGGAGCGCC | 1.03
AAACGATCAG | 0.949
TCGGATGCAT | 3.07
CGTCGGTTGA | 1.01
CATACGCGTG | 1.04
ACGGATCTGT | 0.934
GTTAAGAGCT | 1.01
CTGAATTTAA | 0.959
TGATTTGCT | 1.01
TGATTAATAC | 1.21
CCAGAGTCTT | 1.04
TGCTCATCAT | 0.976
ACAAGTCGCG | 0.996
TGGGGCCCCT | 0.966
GTGATGTAAA | 0.983
CAATTTTTAC | 1.03
AATGGATTGA | 1.01
GGCCCAGCTG | 1.04

Sequence | switch fluorescence ratio
CCTGCCTTTG | 1.15
TAGGCTAATA | 0.964
TCCGCGAGTA | 2.2
TCGTGAGTCA | 0.977
TCTTTGAATA | 1.01
CGCCCCTCTC | 1.03
ACTTAAAGTG | 1.04
AGATTAGACG | 1.06
GGACGAGCAG | 1.04
AGGTGAGCAC | 0.988
CTCGCGGTTA | 1.02
TACTCGGGTG | 1.18
GCGTTATGG | 1.02
GAGGACCTAC | 1.07
ACCGAGGGCG | 0.983
GTTACACGAC | 1.13
GAGCCAAGG | 1.02
GATGCGGAAA | 1.02
CGCCGTTGAG | 0.982
AGCCTCTGCT | 1.02
ATGCGTGTAG | 1.03
GCCGTAAAGT | 0.98
GGCGATACTG | 1.67
CTGAGCTTCT | 1.13
GAAATCTTCC | 2.82

Sequence | switch fluorescence ratio
TTGGGATCTG | 0.998
TAAGAGCCCT | 1.02
TATTCTTAGT | 0.982
AAGACTCTGT | 1.03
GCATCAGAGT | 0.967
GATCTCTTGT | 0.992
TAAACTTGTT | 1
TCGATGGGGC | 1.01
GGCCTTGA | 0.978
GGCCCGTATG | 1.03
GTCTACGTCC | 1.03
TGGGGATGCG | 0.983
AACCTTTTAT | 1.03
ATGCGCGTG | 1.01
CTCAGCGTCC | 1.31
GACTTGTTAC | 1.07
TTTGGTCGT | 0.976
ATTACTAGG | 0.99
TACTCTAAA | 1.13
TCGAAGGTCA | 0.983
CCAAAAGGGA | 1.04
TGGGCCCATC | 1.04
AGCTGGTCGG | 1.05
TTTCTTCTG | 1.08
CCATCAGGCA | 1.01

Sequence | switch fluorescence ratio
AGTGGGGGAC | 0.985
TAGTAACAAG | 0.989
CAGAACTGGG | 0.983
GATGGGAAAG | 0.946
GCGTCAGACT | 1.04
GACACCCTTC | 1.1
ACTGAGGCAG | 1.09
TTAAAACTGC | 1.15
GCTTGGCGA | 0.97
AAAGTGGCTC | 0.984
CACGGGACTT | 1.29
GTTAATATCT | 1.01
ACTAGCTTCC | 3.35
ACGTTTTTGG | 0.977
TCTTTTAGTC | 0.934
CGTGCGCGA | 1.33
TCAACGCGT | 1.05
AAAAGGTAAC | 1.05
AAGGACTAGT | 0.998
GTGGCACGGG | 1
TCGGGGAATC | 1.01
TTGCTATACA | 1.02
TCGTGATTAG | 0.987
TAGACATGTA | 1.02
AACAATTTGT | 0.969

Sequence | switch fluorescence ratio
CCCCTGGGCG | 1.57
CCGGAGGTAG | 1.19
GGTTCTCCTT | 1.01
CGCGTAGAAA | 1.08
TAGTTCACCG | 1.02
AATTTGGAGA | 0.999
TACGATCAGA | 1.02
ATAGAGCGCC | 0.977
GACGGGGTGA | 1.01
GGGTCATTCT | 1.07
TAGATCGCAA | 1.84
TCGGTACGGG | 1
ACGGCGTTGT | 0.983
ACTAAGCGAA | 1.14
CCAAAAGACT | 1.53
TAGCCTTGGG | 1.01
TCATATAATC | 0.996
ATAGTGAACT | 1.01
CGATGTGCCA | 1.07
ATAAGCTTTA | 0.97
AAGGAACTCT | 0.987
CTCCATGCGG | 1.04
TTTTAAAA | 0.964
TGCCCATCAG | 1.02
TGTGAATAAA | 1.02

Sequence | switch fluorescence ratio
CTGAGAGGCC | 1.05
TTTACAATGA | 1.08
GGGACTCATA | 1.01
CATTCAACGA | 1.03
AGTGTACATT | 0.974
ATTCGAAAAC | 1.12
ATGGTTCGTA | 0.989
GTTGCAGGTA | 0.986
ACCATTTATA | 1.03
CGCAGAATAA | 1.24
TTAAAGTGGA | 0.94
GACCAAATAG | 1.07
TACAGGTCGC | 1.05
CGCCCTTGAA | 1.07
ACCCCATGAA | 1.04
AGCAATGGAA | 1.25
ACAGTTTAGT | 1.02
AATGTATATG | 0.978
ACAAACCTGC | 1.52
CGGGTCAAGG | 0.97
ACTGCTAATG | 1.03
TGCATAACCC | 1
TTGAAATGCG | 0.993
AGGGACCTGC | 0.978
AGCATATCTT | 0.996
